# Measured values published in PMC4336329 (PLoS ONE, 2015).
# About 14,000 (4.5%) of roughly 310,000 compounds showed an effect of 50% or more. Effects have a minus sign here. The list shows a part of the results.
# Molecular target: human ether-à-go-go-related gene (hERG) potassium channel (human, UniProt Q12809)
# Assay: primary screen, population patch clamp on CHO cells stably expressing hERG
# 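Note: peak tail current of the secondary pulse compared with the same well before compound.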
# Chain of human ether-à-go-go-related gene (hERG) potassium channel (Q12809 whole entry, looked up): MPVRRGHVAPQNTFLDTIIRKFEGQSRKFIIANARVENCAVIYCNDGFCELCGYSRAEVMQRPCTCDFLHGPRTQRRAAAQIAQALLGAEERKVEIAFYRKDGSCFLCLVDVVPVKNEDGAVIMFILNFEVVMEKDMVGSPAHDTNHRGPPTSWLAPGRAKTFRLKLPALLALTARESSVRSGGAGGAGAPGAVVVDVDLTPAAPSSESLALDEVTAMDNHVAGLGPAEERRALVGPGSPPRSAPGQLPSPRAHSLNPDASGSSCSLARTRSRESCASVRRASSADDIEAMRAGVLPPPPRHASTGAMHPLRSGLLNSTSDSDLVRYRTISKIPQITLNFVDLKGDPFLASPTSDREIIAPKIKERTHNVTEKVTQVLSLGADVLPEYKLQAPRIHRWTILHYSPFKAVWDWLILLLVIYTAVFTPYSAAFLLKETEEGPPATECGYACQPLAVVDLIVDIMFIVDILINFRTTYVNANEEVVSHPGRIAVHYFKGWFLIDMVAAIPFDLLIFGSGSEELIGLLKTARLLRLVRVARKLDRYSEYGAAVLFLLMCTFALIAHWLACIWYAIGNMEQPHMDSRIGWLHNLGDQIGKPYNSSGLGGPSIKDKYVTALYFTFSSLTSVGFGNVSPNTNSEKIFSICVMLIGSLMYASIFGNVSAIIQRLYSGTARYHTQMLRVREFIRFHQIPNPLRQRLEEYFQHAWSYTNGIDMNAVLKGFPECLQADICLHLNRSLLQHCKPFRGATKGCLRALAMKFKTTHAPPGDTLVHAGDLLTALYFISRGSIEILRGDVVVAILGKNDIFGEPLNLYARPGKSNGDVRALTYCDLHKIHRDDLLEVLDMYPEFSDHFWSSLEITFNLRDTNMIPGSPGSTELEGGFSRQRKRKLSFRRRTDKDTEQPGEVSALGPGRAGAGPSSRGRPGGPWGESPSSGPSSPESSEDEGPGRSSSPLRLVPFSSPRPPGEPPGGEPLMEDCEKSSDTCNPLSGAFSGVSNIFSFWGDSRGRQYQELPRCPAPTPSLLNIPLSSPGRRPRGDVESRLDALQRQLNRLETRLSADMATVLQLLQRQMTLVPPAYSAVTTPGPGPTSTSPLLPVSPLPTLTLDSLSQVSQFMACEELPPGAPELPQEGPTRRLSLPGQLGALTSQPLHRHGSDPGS
row,SMILES,"hERG current change (%, negative = inhibition) at 10uM [%]"
1,COc1ccccc1S(=O)(=O)Cc1ccc(C(=O)N2CCOCC2)o1,0.199
2,COc1ccc(OCC(=O)N/N=C(\C)CC(=O)Nc2cccc([N+](=O)[O-])c2)cc1,-53.8
3,CC(=O)N1N=C(c2ccccc2)OC1(C)CC(=O)Nc1ccccc1 (stereo not drawn),8.71
4,O=C(Oc1ccc(=O)n(-c2ccccc2)n1)c1ccc(F)cc1,-26.1
5,Cc1ccc(OCCC(=O)Nc2ccc(C)c(S(=O)(=O)N3CCOCC3)c2)cc1,-12.9
6,COCCCN1C(=O)C(=O)/C(=C(/O)c2ccccc2)C1c1ccc(N(C)C)cc1 (stereo not drawn),12.8
7,O=C(NCc1cccc(CNC(=O)c2ccco2)c1)c1ccco1,29.8
8,CCN(CC)C(=O)Cn1c(=O)n(CCCCCC(=O)Nc2ccccc2)c(=O)c2sccc21,-32.3
9,CCN(C(=O)CSc1nnc(Cc2ccccc2F)n1N)C1CCS(=O)(=O)C1 (stereo not drawn),2.11
10,CCOC(=O)C1=C(C)N=c2s/c(=C\c3ccc(OCC(=O)O)cc3)c(=O)n2C1c1ccc(Cl)cc1 (stereo not drawn),20.4
11,CC(OC(=O)c1cccc(-n2cnnn2)c1)C(=O)N(C)c1ccccc1 (stereo not drawn),-26.8
12,COc1ccc(/C=C/C(=O)N[C@@H](C)C(=O)O)cc1,12.2
13,COc1ccccc1NC(=O)NC(=O)N(C(C)C)S(C)(=O)=O,19.2
14,CCCc1c(NC(=O)Nc2ccc(F)cc2)cnn1-c1ccc(Cl)cc1,7.22
15,CN(C)/C=C1/Oc2c(ccc3ccccc23)C1=O,4.23
16,CC(C)(C)c1ccc(-c2noc(CCC(=O)N3CCOCC3)n2)cc1,-1.04
17,CCC(CNC(=O)c1c(C)nn(-c2ccccc2)c1Cl)c1ccccc1 (stereo not drawn),-2.66
18,Cc1cccc(NC(=O)CCC(=O)N/N=C/c2cccnc2)c1,1.9
19,COc1ccc(C(=O)Nc2cccc(NC(C)=O)c2)cc1OC,10.9
20,C/C=C\C=C/C(=O)Nc1cccc(C2=NOC3(C2)C[C@@H](C(N)=O)N(C(=O)CCCCC)C3)c1 (stereo partly drawn),-37.7
21,CN1C(=O)c2cccc3c(Br)ccc(c23)C1=O,-16.2
22,COC(=O)c1ccc(NC(=S)N(Cc2cccnc2)Cc2ccco2)cc1,-29.1

row,SMILES,"hERG current change (%, negative = inhibition) at 10uM [%]"
1,CCO[C@@H]1OC(C(=O)N2CCCCCCC2)=C[C@H](c2ccc(C(F)(F)F)cc2)[C@H]1CCCO,-21.4
2,O=C(/C=C/c1ccc(-c2ccccc2)cc1)NCc1cccnc1,4.39
3,CCSC(=S)c1c(C)[nH]n(-c2ccccc2)c1=O,12.9
4,O=C(O)c1ccc(-n2nnnc2SCc2ccccc2)cc1,8.05
5,O=C1CC(N2CC=C(c3ccccc3)CC2)C(=O)N1c1ccc(F)cc1 (stereo not drawn),-19.5
6,O=C(CSc1nncn1-c1ccccc1)Nc1ccc(N2CCOCC2)cc1,3
7,COc1cccc(C(=O)NNC(=O)CCC(=O)O)c1,13.7
8,CC1(OC(=O)c2cnc3ccccc3n2)C(=O)C=C2C=C(C3CC3)OC=C2C1=O (stereo not drawn),6.73
9,Cc1occc1-c1nnc(SCC(=O)NCC2CCCO2)n1C (stereo not drawn),-2
10,COc1ccc(N/C=C(/C(C)=O)c2ccccc2)cc1,-20.2
11,Cc1c(NC(=O)NCc2ccccc2)c(=O)n(-c2ccccc2)n1C,3.27
12,Cc1cc(Cl)ccc1NC(=O)C(=O)N/N=C/c1ccc2c(c1)OCO2,19.8
13,O=C(c1cc(COc2ccc(F)c(F)c2)on1)N1CCN(C2CCCCC2)C(=O)C1,-56.2
14,Cc1onc(-c2c(F)cccc2Cl)c1C(=O)OCc1nnc(-c2ccccc2)o1,-9.29
15,Cc1cc(O)c(C(=O)/C=C/c2ccc(C(C)C)cc2)c(=O)o1,12.4
16,COc1ccc(/C=C/C(=O)NC(=S)Nc2ccc(S(=O)(=O)N=C(N)N)cc2)cc1OC,-30.3
17,CCOC(=O)c1ccc(NC(=O)CN(C)S(=O)(=O)c2ccc(OC)cc2)cc1,6.82
18,Cc1cc(C)c2sc(N(CCN(C)C)C(=O)c3c(F)cccc3F)nc2c1.Cl,-2.23
19,O=C1Nc2ccc(Cl)cc2C(C#CC2CC2)(C(F)(F)F)O1 (stereo not drawn),2.47
20,Cc1ccc(-c2noc(CN(C(=O)C34CC5CC(CC(C5)C3)C4)C(C)C)n2)cc1,3.64
21,Fc1ccc(NC(=S)Nc2ccc3nccnc3c2)cc1,4.15
22,Nc1ncnc2c1ncn2Cc1ccccc1,8.84

row,SMILES,"hERG current change (%, negative = inhibition) at 10uM [%]"
1,CC(=O)Nc1ccc(-n2c(=O)c3ccccc3c3ccccc3c2=O)cc1,24.3
2,COc1ccccc1N1CCN(Cc2cc3c(cc2O)OCO3)CC1,-39.7
3,CCN1CCN(c2ccc([N+](=O)[O-])cc2C(=O)c2ccc(Cl)cc2)CC1,-72.8
4,COc1ccc(-c2nc3c4ccccc4ccn3c2CN2CCCCC2)cc1OC.Cl,0.736
5,O=c1[nH]c(CN2CCN(C/C=C/c3ccccc3)CC2)nc2ccccc12,-65.2
6,O=[N+]([O-])c1ccccc1S(=O)(=O)NCc1ccc(F)cc1,7.19
7,CCO[C@H]1OC(C(=O)NC2CC2)=C[C@@H](c2coc3ccccc3c2=O)[C@@H]1CCCO,5.93
8,Cn1c(SCC(=O)N/N=C/c2ccco2)nc2ccccc21,-2.38
9,O=C(O)c1cccc(-c2ccc(/C=N/Nc3nn[nH]n3)o2)c1,16.8
10,CN1CCN(C2CCCCCC2)CC1,5.61
11,O=C(Nc1cccnc1)c1cc(-c2cccc(Cl)c2)on1,-0.33
12,Cc1cc([N+](=O)[O-])nn1CCCC(=O)Nc1c(C)n(C)n(-c2ccccc2)c1=O,0.638
13,CCN1CCN(C(=O)N[C@@H](C(=O)N[C@@H]2C(=O)N3C(C(=O)O)=C(CSc4nnnn4C)CS[C@H]23)c2ccc(O)cc2)C(=O)C1=O.O,10
14,COc1cc(N=Nc2c(C)n(C)n(-c3ccccc3)c2=O)ccc1N,10.6
15,CCOc1ccc(N)c(SSc2cc(OCC)ccc2N)c1,19.3
16,CC(C)Oc1cccc(C(=O)C2CCCN(C(=O)CCn3cnnn3)C2)c1 (stereo not drawn),-5.7
17,CS(=O)(=O)Nc1ccc(C(=O)Nc2ccc(S(=O)(=O)N3CCCC3)cc2)cc1,-13.7
18,CCOc1ccccc1NC(=O)NC1(C(=O)NCC2CCCO2)CCCCC1 (stereo not drawn),15
19,CSc1nnc(CSCc2ccc(Cl)cc2Cl)n1-c1ccccc1,6.12
20,Cc1cccc(/C=N/NC(=O)CC(=O)NCCc2ccccc2)c1,22.9
21,CC(C)COc1ccc(C(=O)Nc2sc3c(c2C(=O)O)CC(C)(C)OC3)cc1,23.7
22,CC(=O)Nc1ccc(Nc2c([N+](=O)[O-])cc(S(C)(=O)=O)cc2[N+](=O)[O-])cc1,11

row,SMILES,"hERG current change (%, negative = inhibition) at 10uM [%]"
1,CC(C)N1CCN(Cc2cccc3nonc23)CC1CCO (stereo not drawn),1.05
2,CCOc1ccc(NS(=O)(=O)c2ccc(NS(=O)(=O)c3ccc(SC)cc3)cc2)cc1,9.43
3,CCN(CC)c1ccc(N=CN2CCOCC2)cc1,0.98
4,COc1ccc(S(=O)(=O)N2CCCc3ccccc32)cc1OC,-10.1
5,CC(=O)Nc1ccc(S(=O)(=O)NNC(=S)NCC2CCCO2)cc1 (stereo not drawn),6.75
6,Cc1cc(C(=O)O)n(C(C)(C)C)n1,8.47
7,CCN(CCO)C(=O)CC(c1ccccc1)c1cc(Br)ccc1O (stereo not drawn),-14.5
8,CCCC(=O)N1CC2(CCC)CN(C(=O)CCC)CC(CCC)(C1)C2=O,-8.46
9,C=C(C)c1cccc(C(C)(C)NC(=O)NC2CN3CCC2CC3)c1 (stereo not drawn),1.14
10,CC(C)CC1Nc2ncnc(N3CCN(c4ccccc4)CC3)c2N(Cc2ccc(Cl)cc2)C1=O.O=C(O)C(F)(F)F (stereo not drawn),-2.17
11,CN1CCN(C(=O)C2CCCN(S(=O)(=O)c3ccc(Cl)cc3)C2)CC1 (stereo not drawn),-18.8
12,O=C(NCc1cccc(C(F)(F)F)c1)C1CC(c2ccccc2F)=NO1 (stereo not drawn),-6.12
13,COc1cc2cc(CCCOC(=O)c3ccc(C(F)(F)F)cc3)oc(=O)c2cc1OC,-18.6
14,Cc1ccc(CNC(=O)Cn2nnc(C(=O)Nc3cccc(C)c3C)c2N)cc1,13.1
15,O=C(NNC(=O)c1ccc(SCC2CCCO2)c([N+](=O)[O-])c1)c1ccc(Cl)c([N+](=O)[O-])c1 (stereo not drawn),-12.3
16,O=C(CN1CCN(c2ccc(F)cc2)CC1)Nc1cccnc1Cl,13.3
17,Cc1cccc(-c2oc(C)c(C)[n+]2[O-])c1.Cl,-6.92
18,Cc1ccccc1N=C(NO)c1cccnc1,5.78
19,NC(=O)/C(=C\c1ccco1)NC(=O)c1ccc(Br)o1,4.3
20,O=c1n(Cc2ccccc2Cl)nc2n1-c1ccccc1SC2,0.692
21,COc1ccc(N=C2C(=Nc3ccc(OC)cc3)N(c3ccc(N(C)C)cc3)C(=S)N2c2ccc(OC)cc2)cc1,-6.16
